In the antibiotic and cytotoxicity screens of Wong et al. (2023) one finds growth inhibition call data, which are given here for 28 compounds.

The list shows a part of the results.

The assay deals with S. aureus RN4220. The assay can be described thus: growth inhibition call (relative growth <= 0.2). The settings on record: 50 µM.
As to `C[C@H](CO)N1C[C@H](C)[C@H](CN(C)Cc2ccc(C(=O)Nc3ccccc3N)cc2)Oc2ccc(NC(=O)Nc3cccc4ccccc34)cc2CC1=O`, the growth inhibition call was “inactive”. Take `C[C@@H]1CN([C@H](C)CO)C(=O)Cc2cc(NC(=O)C3CC3)ccc2O[C@H]1CN(C)C(=O)NC1CCCCC1`: the growth inhibition call is “inactive”. As for `C[C@H]1CN([C@@H](C)CO)C(=O)c2cc(NS(=O)(=O)c3ccccc3)ccc2O[C@H]1CN(C)S(=O)(=O)c1ccccc1`, the growth inhibition call was “inactive”. Turning to `COc1c(O)cc(O)cc1O`, the growth inhibition call was “inactive”.

Take `CNC[C@H]1OCCCC[C@@H](C)Oc2ccc(NS(=O)(=O)c3c(C)noc3C)cc2C(=O)N([C@H](C)CO)C[C@H]1C`: the growth inhibition call was “inactive”. The entry for `C[C@@H]1CCCCO[C@H](CN(C)C(=O)NC2CCCCC2)[C@H](C)CN([C@H](C)CO)C(=O)c2cc(NS(=O)(=O)c3ccc(Cl)cc3)ccc2O1` is “inactive”. The value for `C[C@@H]1CN([C@H](C)CO)S(=O)(=O)c2ccc(C#CC3CC3)cc2O[C@@H]1CN(C)C(=O)C1CCCCC1` was “inactive”; that for `Cc1ccc(S(=O)(=O)N(C)C[C@H]2Oc3ccc(NC(=O)Nc4ccc(C(F)(F)F)cc4)cc3C(=O)N([C@@H](C)CO)C[C@H]2C)cc1` was “inactive”; that for `C=C(O)C(=O)O` was “inactive”. The value for `CC(C)CNC(=O)CSc1nnc[nH]1` was “inactive”; that for `C[C@@H]1CN([C@H](C)CO)C(=O)c2cc(NC(=O)Cc3ccccc3)ccc2O[C@@H](C)CCCCO[C@H]1CN(C)C(=O)Nc1cccc2ccccc12` was “inactive”; that for `CCN([NH2+][O-])c1ccc(O)c(O)c1` was “inactive”. Regarding `Cc1onc(-c2ccccc2)c1C#N`, the growth inhibition call was “inactive”.

Turning to `COCCC(=O)N1CC[C@]2(CCOC2)C1`, the growth inhibition call is “inactive”. The entry for `Cc1noc(C)c1S(=O)(=O)N(C)C[C@@H]1OCc2cnnn2CCCC(=O)N([C@@H](C)CO)C[C@H]1C` is “inactive”; for `Cc1ccc(S[C@]2(C(=O)NC3CC3)CC(=O)N(C3Cc4ccccc4C3)[C@@H]2c2ccc(CO)cc2I)cc1` it is “inactive”; for `C[C@H](NC(=O)C[C@@H]1C[C@H]2c3cc(NC(=O)Nc4ccc(C(F)(F)F)cc4)ccc3O[C@H]2[C@H](CO)O1)c1ccccc1` it is “inactive”. The entry for `CO[C@@H]1CN(C)C(=O)c2ccc(NC(=O)Nc3ccccc3)cc2OC[C@@H](C)N(C(=O)CN(C)C)C[C@H]1C` is “inactive”; for `C[C@@H]1O[C@@H](O[C@@H]2[C@@H](O)[C@H](O)[C@@H](CO)O[C@H]2c2c(O)cc3oc(-c4ccc(O)cc4)cc(=O)c3c2O)[C@H](O)[C@H](O)[C@H]1O` it is “inactive”. The entry for `COC(=O)C[C@@H]1CC[C@@H]2[C@H](COC[C@@H](O)CN2S(=O)(=O)c2ccc(F)cc2)O1` is “inactive”. As to `C[C@@H]1CN([C@@H](C)CO)C(=O)c2cccc(NC(=O)CCCCCC(=O)Nc3ccccc3N)c2O[C@@H]1CN(C)C(=O)Nc1ccc(F)cc1`, the growth inhibition call is “inactive”. In the case of `CO[C@H]1CN(C)C(=O)c2cc(NC(=O)Nc3ccccc3F)ccc2OC[C@@H](C)N(Cc2ccccc2C(=O)O)C[C@@H]1C`, the growth inhibition call was “inactive”. The entry for `COCC(=O)Nc1ccc2c(c1)C(=O)N(C)[C@@H]1CC[C@@H](CC(=O)NC3Cc4ccccc4C3)O[C@@H]1CO2` is “inactive”; for `C[C@H]1CN([C@@H](C)CO)C(=O)Cc2cc(NC(=O)CCN3CCOCC3)ccc2O[C@@H]1CN(C)C(=O)Nc1ccc2c(c1)OCO2` it is “inactive”. The entry for `O=C(C[C@@H]1CC[C@@H]2[C@H](COC[C@@H](O)CN2C(=O)c2ccc3c(c2)OCO3)O1)NCCN1CCCC1` is “inactive”; for `COC(=O)C[C@H]1CC[C@@H](N)[C@H](CO)O1` it is “inactive”. Turning to `Cc1noc(C)c1NC(=O)N(C)C[C@H]1Oc2c(NS(=O)(=O)c3c(C)noc3C)cccc2C(=O)N([C@@H](C)CO)C[C@H]1C`, the growth inhibition call was “inactive”. The entry for `CSCCNc1nc(SCCC(F)(F)F)nc2c1ncn2[C@@H]1O[C@H](COP(=O)(O)OP(=O)(O)C(Cl)(Cl)P(=O)(O)O)[C@@H](O)[C@H]1O` is “inactive”.
